From PubChem BioAssay AID504466 (National Center for Advancing Translational Sciences (NCATS), 2011)
Out of some 330,000 compounds screened, about 4,200 (1.3%) were called active. Inconclusive means that the source gave no clear call. Such entries were picked first, then a sample of the others. Calls come from the whole dose curve; as a rule, active = well fitted activation curve with a large enough effect; inconclusive = small, poorly fitted or top-dose-only effect; inactive = no such curve, though single readings can be large or run the other way. A potency beside an inconclusive call is a rough fit, not a confirmed value.

Assay: qHTS screen for small molecules that induce genotoxicity in human embryonic kidney (HEK293T) cells expressing luciferase-tagged ELG1; note: nearly all actives have a fitted effect of over 60% in size
Conditions: HEK293T ELG1-luciferase reporter, luminescence, 16 h; series mostly up to 46 µM
Method in brief: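 Genotoxicity was scored as increased ELG1-luciferase reporter signal, measured by ONE-Glo luminescence (30 min, room temperature). Compound or vehicle exposure of the HEK293T reporter cells lasted 16 hr at 37°C.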
Potency is the fitted concentration of half-maximal effect; tags give direction and shape of the fitted curve.

Compound	Potency
O=C(Cc1nc2ccccc2[nH]c1=O)c1ccc(Cl)cc1	inconclusive: 3.26 µM [activator, full curve]
Cc1cccc(-c2nnc(SCC(=O)N3CCOCC3)o2)c1	inconclusive: 11.2 µM [activator, partial curve, poor fit]
COc1cc(OC)cc(C(=O)N[C@H](C(=O)NC2=NCCS2)C(C)C)c1	inactive
Cc1cccc(N2C(=O)N3[C@H]4c5ccccc5OC[C@@H]4[C@@H](c4ccccc4)[C@@]3(C)C2=O)c1	inactive
c1ccc2c(COn3nnc4ccccc43)cccc2c1	active: 8.91 µM
COc1ccc(S(=O)(=O)Nc2ccc3c(c2)n(C)c(=O)n3C)cc1C	inconclusive: 20.6 µM [activator, partial curve, poor fit]
O=C(NNC(=O)c1ccc(O)cc1O)c1ccc(Cl)cc1	inconclusive: 29.1 µM [activator, partial curve, poor fit]
COCCn1c(SCC(=O)Nc2ccccc2F)nc2c([nH]c3ccccc32)c1=O	inconclusive: 29.1 µM [activator, single point]
Cc1cc(C(=O)N/N=C/c2c(C)nn(-c3ccccc3)c2Cl)n[nH]1	inconclusive: 20.6 µM [activator, single point]
CCCn1c(SCC(=O)NCCCN2CCCC2=O)nc2ccccc2c1=O	inactive
O=C(Nc1ccccn1)c1ccc(NC(=O)c2ccco2)cc1	inconclusive: 7.31 µM [activator, partial curve]
O=C(/C=C/c1ccc(Br)cc1)NC1CCCCCC1	inconclusive: 18.4 µM [activator, partial curve, poor fit]
Cc1ccc(S(=O)(=O)N2CCN(C(=O)c3c(-c4ccccc4)noc3C)CC2)c(C)c1	inactive
COc1ccc(NC(=O)CNC(=O)c2ccco2)cc1	inconclusive: 20.6 µM [activator, single point]
COc1cc(C)ccc1OCc1cc(C(=O)N(C)CCCN2CCOCC2)no1	active: 18.3 µM
Cc1ccsc1C(=O)OCC(=O)NCCC1=CCCCC1	inconclusive: 16.4 µM [activator, partial curve, poor fit]
CC(=O)CSc1ncnc2c1cnn2-c1ccccc1	inconclusive: 2.91 µM [activator, partial curve]
O=C(Cc1ccccc1)NNC1=NS(=O)(=O)c2ccccc21	inactive
Cc1ccc2cc(CN(C)C(=O)C3CCCO3)c(=O)[nH]c2c1 (centres undefined)	inconclusive: 18.4 µM [activator, single point]
Cc1ccc(S(=O)(=O)N2CCC(C(=O)Nc3ccccc3N3CCCC3)CC2)cc1C	inactive
NC(=O)C1CCN(c2nc(-c3cccc(N)c3)cs2)CC1	inconclusive: 8.2 µM [activator, partial curve, poor fit]
CC(C)Sc1nnc(NC(=O)C2CC2)s1	inconclusive: 29.1 µM [activator, single point]
O=c1c2cc(Cl)ccc2nc(-c2ccc(Cl)c(Cl)c2)n1O	inconclusive: 32.6 µM [activator, partial curve, poor fit]
CCN(CC)CCCNC(=O)c1cc2c(=O)n(C)c3ccccc3c2n1C	inconclusive: 20.6 µM [activator, single point]
COc1ccc(C(=O)CNc2ccc3ccccc3c2)cc1	inconclusive: 20.6 µM [activator, partial curve, poor fit]

Compound	Potency
CC(C)(C)c1ccc(C(=O)NCCCNC(=O)c2cccnc2)cc1	inactive
CCOc1ccc(N(CC(=O)Nc2ccccc2C)S(=O)(=O)c2c(C)noc2C)cc1	inactive
CCCC(=O)Nc1nc2ccc(OCC)cc2s1	inconclusive: 8.2 µM [activator, partial curve]
CCCNC(=O)c1cccc(COc2ccccc2OC)c1	inconclusive: 1.64 µM [activator, full curve, poor fit]
CCCC(=O)Nc1ccc(C#Cc2ccccc2)cc1	inconclusive: 16.4 µM [activator, partial curve, poor fit]
CSc1ccc(NC(=O)NCc2cccnc2)cc1	inconclusive: 25.9 µM [activator, partial curve, poor fit]
COC(=O)C1=C(C)NC(C)=C(C(=O)OC)C1/C=C/c1ccccc1	active: 16.4 µM
COC(=O)c1ccnc(SCC(=O)c2ccccc2)c1	active: 14.6 µM
CCOc1ccc(NC(=O)c2ccc3nccnc3c2)cc1	inconclusive: 9.2 µM [activator, partial curve, poor fit]
Cc1sc(NC(=S)NC(=O)c2ccc(C(C)(C)C)cc2)c(C#N)c1C	inactive
COc1cc2c(cc1OC)CN(C(=O)CN1C(=O)NC3(CCC(C)CC3)C1=O)CC2 (centres undefined)	inactive
Cc1nc(-c2ccc(NC(=O)C3CC3)cc2)cs1	active: 20.6 µM
COc1cc(C2C3=C(Nc4ncnn42)c2ccccc2CC3)cc(OC)c1OC (centres undefined)	inconclusive: 0.92 µM [activator, full curve, poor fit]
Cc1ccc(NC(=O)c2sccc2C)nc1	active: 2.91 µM
N=c1nc(N)nc2n1NC(c1ccc(F)cc1)=CS2	inactive
O=C(NCC(=O)N(CC1CCCO1)C1(C(=O)NC2CCCC2)CCCCC1)c1ccccc1 (centres undefined)	inactive
COc1ccc(C2=NN(C(C)=O)C(c3ccccc3)C2)cc1 (centres undefined)	inconclusive: 18.3 µM [activator, partial curve, poor fit]
CCC(C)N1C(=O)S/C(=C/c2ccc(N3CCOCC3)cc2C)C1=O (centres undefined)	inactive
CSc1ccccc1C(=O)Nc1ccc(C)c(C)c1	inconclusive: 20.6 µM [activator, partial curve]
CC(C)Sc1nc(SCC(=O)O)c2c3c(sc2n1)COC(C)(C)C3	inconclusive: 18.3 µM [activator, single point]
CCOC(=O)c1c(C)oc2c1c1c(c3ccccc32)OCN(CCCC(=O)O)C1	inconclusive: 7.3 µM [activator, partial curve]
COc1ccc(/C=C2\SC(=O)N(CC(=O)NCCC(C)C)C2=O)cc1OC	inactive
Cc1nn(-c2ccccc2)c(C)c1/C=N/Nc1nc2ccccc2[nH]1	active: 5.17 µM
COc1ccc(/C(C)=N/Nc2nncc3ccccc23)cc1	inconclusive: 1.83 µM [activator, full curve]
O=C(Oc1ccc(Br)cc1)c1n[nH]c(=O)c2ccccc12	inactive

Compound	Potency
CCNC(=O)NC(=O)COc1ccccc1C#N	inconclusive: 18.4 µM [activator, partial curve, poor fit]
Fc1ccccc1CSc1nc2ncc(Br)cc2[nH]1	inconclusive: 11.6 µM [activator, partial curve]
CC(C)CN1C(=O)c2ccc(C(=O)Nc3ccncc3)cc2C1=O	inactive
CN(Cc1ccc(OCC(O)CN2CCCCC2)cc1)Cc1ccnc2ccccc12 (centres undefined)	inactive
Cc1ccc(Nc2nnc(-c3ccc4c(c3)OCO4)o2)c(C)c1	inconclusive: 20.6 µM [activator, partial curve, poor fit]
Cc1ccc(NC(=O)C(Cc2ccccc2)N2C(=O)C3C4CCC(C4)C3C2=O)cc1Cl (centres undefined)	inactive
COc1ccc2oc(=O)c(C(=O)N3CCN(c4ccccc4C)CC3)cc2c1	active: 9.2 µM
O=C(Nc1nc2ccccc2s1)NC1CCCCC1	inconclusive: 1.83 µM [activator, full curve]
O=C(CCc1ccccc1)n1nc(-c2ccco2)nc1SCc1ccccc1	inconclusive: 14.6 µM [activator, partial curve]
CCC(=O)Nc1cccc(Oc2nc(C)cc(C)c2C#N)c1	inactive
COc1ccccc1C(=O)N1CCN(c2nc3cc(C)c(C)cc3cc2C#N)CC1	inactive
O=C(Nc1ccc(N2CCCCC2)c(Cl)c1)c1ncn[nH]1	inconclusive: 6.51 µM [activator, partial curve]
Cc1nn(CC2CCCCC2)c(N)c1-c1ccccc1	inconclusive: 14.6 µM [activator, partial curve]
COc1ccccc1N1CCN(/N=C/c2cccc(OC)c2OC)CC1	inactive
O=C(c1ccc2nc(Cc3cccc(Cl)c3)oc2c1)N1CCOCC1	inconclusive: 23.1 µM [activator, single point]
CC(=O)OCC(=O)[C@@]12OC(C)(C)O[C@@H]1C[C@H]1[C@@H]3C[C@H](F)C4=CC(=O)C=C[C@]4(C)[C@@]3(F)[C@@H](O)C[C@@]12C	inconclusive: 25.9 µM [activator, partial curve]
N=C1C(c2nc3ccccc3[nH]2)=C(O)CN1c1ccc(F)cc1	inconclusive: 16.4 µM [activator, single point]
Cc1ccc(NC(=O)C2CCCN(c3ncccn3)C2)cc1C (centres undefined)	inconclusive: 4.61 µM [activator, full curve]
CCOc1ccc(S(=O)(=O)Nc2cccc(C(=O)NCCCn3ccnc3)c2)cc1	inactive
O=C(Cc1ccc(-c2ccccc2)cc1)Nc1ncccc1O	inconclusive: 7.3 µM [activator, partial curve]
Cc1cnc(NC(=O)c2ccc3c(c2)OCCO3)s1	inconclusive: 0.231 µM [activator, partial curve]
O=C(CSCCO)Nc1ccc(C23CC4CC(CC(C4)C2)C3)cc1	inconclusive: 29.1 µM [activator, single point]
Cc1ccnc(NC(=S)NC(=O)c2ccco2)c1	inconclusive: 16.4 µM [activator, partial curve]
Cc1cccc2cc(-c3nc4ccc(C(=O)O)cc4[nH]3)c(=O)oc12	inconclusive: 0.411 µM [activator, full curve, poor fit]
